B1: 1H3-hIgG1-L6-hIL-2 (D20Y/H16E) (protein)
heavy: EVQLVESGGGLVQPGRSLKLSCAVSGFTFSDYAMAWVRQAPKKGLEWVATISYDGSRTYYRDSVKGRFTISRDNAKITLYLQMDSLRSEDTATYYCARHGSGYFDYWGQGVMVTVSS[not shown - about 450 residues with a human IgG1 Fc and changes]
light: DTVLTQSPALAVSPGERVTISCRASESVRTGVHWYQQKPGQQPKLLIYGASNLESGVPARFSGSGSGTDFTLTIDPVEADDTATYFCQQSWNDPFTFGSGTKLEIKRTVAAPSVFIFPPSDEQLKSGTASVVCLLNNFYPREAKVQWKVDNALQSGNSQESVTEQDSKDSTYSLSSTLTLSKADYEKHKVYACEVTHQGLSSPVTKSFNRGEC
B2: 1H3-hIgG1-L6-hIL-2 (D20A/E95A/R38D) (protein)
heavy: EVQLVESGGGLVQPGRSLKLSCAVSGFTFSDYAMAWVRQAPKKGLEWVATISYDGSRTYYRDSVKGRFTISRDNAKITLYLQMDSLRSEDTATYYCARHGSGYFDYWGQGVMVTVSS[not shown - human IgG1 constant region]SGGGGSAPTSSSTKKTQLQLEHLLLALQMILNGINNYKNPKLTDMLTFKFYMPKKATELKHLQCLEEELKPLEEVLNLAQSKNFHLRPRDLISNINVIVLALKGSETTFMCEYADETATIVEFLNRWITFCQSIISTLT
light: B1 light
B3: 1H3-hIgG1-L6-hIL-2 (R38E/Q126D) (protein)
heavy: EVQLVESGGGLVQPGRSLKLSCAVSGFTFSDYAMAWVRQAPKKGLEWVATISYDGSRTYYRDSVKGRFTISRDNAKITLYLQMDSLRSEDTATYYCARHGSGYFDYWGQGVMVTVSS[not shown - about 450 residues with a human IgG1 Fc and changes]
light: B1 light
B4: 1H3-hIgG1-L6-hIL-2 (R38L/D20A) (protein)
heavy: EVQLVESGGGLVQPGRSLKLSCAVSGFTFSDYAMAWVRQAPKKGLEWVATISYDGSRTYYRDSVKGRFTISRDNAKITLYLQMDSLRSEDTATYYCARHGSGYFDYWGQGVMVTVSS[not shown - about 450 residues with a human IgG1 Fc and changes]
light: B1 light
B5: 1H3-hIgG1-L6-hIL-2 (R38Q/D20A) (protein)
heavy: EVQLVESGGGLVQPGRSLKLSCAVSGFTFSDYAMAWVRQAPKKGLEWVATISYDGSRTYYRDSVKGRFTISRDNAKITLYLQMDSLRSEDTATYYCARHGSGYFDYWGQGVMVTVSS[not shown - about 450 residues with a human IgG1 Fc and changes]
light: B1 light
B6: 1H3-hIgG1-L6-hIL-2 (R38Q/I92D) (protein)
heavy: EVQLVESGGGLVQPGRSLKLSCAVSGFTFSDYAMAWVRQAPKKGLEWVATISYDGSRTYYRDSVKGRFTISRDNAKITLYLQMDSLRSEDTATYYCARHGSGYFDYWGQGVMVTVSS[not shown - about 450 residues with a human IgG1 Fc and changes]
light: B1 light
B7: 1H3-hIgG1-L6-hIL-2 (R38F/D20A) (protein)
heavy: EVQLVESGGGLVQPGRSLKLSCAVSGFTFSDYAMAWVRQAPKKGLEWVATISYDGSRTYYRDSVKGRFTISRDNAKITLYLQMDSLRSEDTATYYCARHGSGYFDYWGQGVMVTVSS[not shown - about 450 residues with a human IgG1 Fc and changes]
light: B1 light
B8: 1H3-hIgG1-L6-hIL-2 (D20A/E95A/F42A) (protein)
heavy: EVQLVESGGGLVQPGRSLKLSCAVSGFTFSDYAMAWVRQAPKKGLEWVATISYDGSRTYYRDSVKGRFTISRDNAKITLYLQMDSLRSEDTATYYCARHGSGYFDYWGQGVMVTVSS[not shown - human IgG1 constant region]SGGGGSAPTSSSTKKTQLQLEHLLLALQMILNGINNYKNPKLTRMLTAKFYMPKKATELKHLQCLEEELKPLEEVLNLAQSKNFHLRPRDLISNINVIVLALKGSETTFMCEYADETATIVEFLNRWITFCQSIISTLT
light: B1 light
B9: 1H3-hIgG1-L6-hIL-2 (R38M/D20A) (protein)
heavy: EVQLVESGGGLVQPGRSLKLSCAVSGFTFSDYAMAWVRQAPKKGLEWVATISYDGSRTYYRDSVKGRFTISRDNAKITLYLQMDSLRSEDTATYYCARHGSGYFDYWGQGVMVTVSS[not shown - about 450 residues with a human IgG1 Fc and changes]
light: B1 light
B10: 1H3-hIgG1-L6-hIL-2 (Δ1-3APT/D20A/R38E) (protein)
heavy: EVQLVESGGGLVQPGRSLKLSCAVSGFTFSDYAMAWVRQAPKKGLEWVATISYDGSRTYYRDSVKGRFTISRDNAKITLYLQMDSLRSEDTATYYCARHGSGYFDYWGQGVMVTVSS[not shown - human IgG1 constant region]SGGGGSSSSTKKTQLQLEHLLLALQMILNGINNYKNPKLTEMLTFKFYMPKKATELKHLQCLEEELKPLEEVLNLAQSKNFHLRPRDLISNINVIVLELKGSETTFMCEYADETATIVEFLNRWITFCQSIISTLT
light: B1 light
B11: 1H3-hIgG1-L6-hIL-2 (D20A/E95A/R38E) (protein)
heavy: EVQLVESGGGLVQPGRSLKLSCAVSGFTFSDYAMAWVRQAPKKGLEWVATISYDGSRTYYRDSVKGRFTISRDNAKITLYLQMDSLRSEDTATYYCARHGSGYFDYWGQGVMVTVSS[not shown - human IgG1 constant region]SGGGGSAPTSSSTKKTQLQLEHLLLALQMILNGINNYKNPKLTEMLTFKFYMPKKATELKHLQCLEEELKPLEEVLNLAQSKNFHLRPRDLISNINVIVLALKGSETTFMCEYADETATIVEFLNRWITFCQSIISTLT
light: B1 light
B12: 1H3-hIgG1-L6-hIL-2 (D20A/E95A/R38Q) (protein)
heavy: EVQLVESGGGLVQPGRSLKLSCAVSGFTFSDYAMAWVRQAPKKGLEWVATISYDGSRTYYRDSVKGRFTISRDNAKITLYLQMDSLRSEDTATYYCARHGSGYFDYWGQGVMVTVSS[not shown - human IgG1 constant region]SGGGGSAPTSSSTKKTQLQLEHLLLALQMILNGINNYKNPKLTQMLTFKFYMPKKATELKHLQCLEEELKPLEEVLNLAQSKNFHLRPRDLISNINVIVLALKGSETTFMCEYADETATIVEFLNRWITFCQSIISTLT
light: B1 light
B13: 1H3-hIgG1-L6-hIL-2 (K43E/D20A) (protein)
heavy: EVQLVESGGGLVQPGRSLKLSCAVSGFTFSDYAMAWVRQAPKKGLEWVATISYDGSRTYYRDSVKGRFTISRDNAKITLYLQMDSLRSEDTATYYCARHGSGYFDYWGQGVMVTVSS[not shown - about 450 residues with a human IgG1 Fc and changes]
light: B1 light
B14: 1H3-hIgG1-L6-hIL-2 (D20A/E95A/K43E) (protein)
heavy: EVQLVESGGGLVQPGRSLKLSCAVSGFTFSDYAMAWVRQAPKKGLEWVATISYDGSRTYYRDSVKGRFTISRDNAKITLYLQMDSLRSEDTATYYCARHGSGYFDYWGQGVMVTVSS[not shown - human IgG1 constant region]SGGGGSAPTSSSTKKTQLQLEHLLLALQMILNGINNYKNPKLTRMLTFEFYMPKKATELKHLQCLEEELKPLEEVLNLAQSKNFHLRPRDLISNINVIVLALKGSETTFMCEYADETATIVEFLNRWITFCQSIISTLT
light: B1 light
B15: 1H3-hIgG1-L6-hIL-2 (R38A/D20A) (protein)
heavy: EVQLVESGGGLVQPGRSLKLSCAVSGFTFSDYAMAWVRQAPKKGLEWVATISYDGSRTYYRDSVKGRFTISRDNAKITLYLQMDSLRSEDTATYYCARHGSGYFDYWGQGVMVTVSS[not shown - about 450 residues with a human IgG1 Fc and changes]
light: B1 light

What was measured:
Assay in all cases: cell-based or functional assay
[1] = target: high-affinity hIL-2 receptor (IL-2Rαβγ) on NK-92 cells (human) (UniProt P01589)
[2] = target: intermediate affinity hIL-2 receptor complex (IL-2Rβγ) on TF1+IL-2Rβ cells (human) (UniProt P14784)
[3] = target: intermediate affinity hIL-2 receptor (hIL-2Rβγ) on TF1+IL-2Rβ cells (human) (UniProt P14784)
[4] = target: high-affinity hIL-2 receptor (IL-2Rαβγ) (human) (UniProt P01589)
[5] = target: intermediate affinity hIL-2 receptor complex (IL-2Rβγ) (human) (UniProt P14784)

Binder	Fold change from hIL-2 (NK-92) [1] [fold]	Fold change from rhIL-2 (NK-92) [1] [fold]	Fold change from hIL-2 (TF1 + IL-2Rβ) [2] [fold]	Agonistic Activity (TF1 + IL-2Rβ) [3] [%]	Fold change from rhIL-2 (TF1 + IL-2Rβ) [3] [fold]	Fold change from rhIL-2 (NK-92), pSTAT5 titration [4] [fold]	Fold change from rhIL-2 (TF1 + IL-2Rβ), pSTAT5 titration [5] [fold]	Agonistic Activity (NK-92) [1] [%]	Agonistic Activity (NK-92), pSTAT5 titration [4] [%]	Agonistic Activity (TF1 + IL-2Rβ), pSTAT5 titration [5] [%]
B1	6	5	4	80	8080	52	2160	–	–	–
B2	21	5320	6	80	492	> 10000	–	50	60 to 70	–
B3	15	–	4	–	–	> 10000	> 10000	–	60	40
B4	11	–	4	–	–	532	125	–	80	70
B5	14	–	3	–	–	4700	91	–	80	70
B6	14	–	2	–	–	561	48	–	–	90
B7	12	–	3	–	–	1070	124	–	80	90
B8	21	369	5	90	73	–	–	70	90	–
B9	11	–	3	–	–	786	85	–	90	90
B10	13	–	1	90	32	–	6	–	–	–
B11	21	> 10000	5	90	439	> 10000	–	–	70 to 90	–
B12	19	572	6	80	859	3720	–	–	70	–
B13	13	–	2	–	–	584	231	–	90	70
B14	13	80	6	70	1880	–	–	90	80 to 90	–
B15	13	–	3	–	–	619	70	–	80	70

From US20240076343A1
